Test results as given in article PMC4336329 (PLoS ONE, 2015).
In all, about 310,000 compounds went through this assay and about 14,000 (4.5%) showed an effect of 50% or more. The effect is printed as a negative number. The list shows a part of the results.

biological target: human ether-à-go-go-related gene (hERG) potassium channel (human, UniProt Q12809); assay: primary screen, population patch clamp on CHO cells stably expressing hERG
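Note: peak tail current of the secondary pulse compared with the same well before compound.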

human ether-à-go-go-related gene (hERG) potassium channel, sequence (Q12809 whole entry, looked up): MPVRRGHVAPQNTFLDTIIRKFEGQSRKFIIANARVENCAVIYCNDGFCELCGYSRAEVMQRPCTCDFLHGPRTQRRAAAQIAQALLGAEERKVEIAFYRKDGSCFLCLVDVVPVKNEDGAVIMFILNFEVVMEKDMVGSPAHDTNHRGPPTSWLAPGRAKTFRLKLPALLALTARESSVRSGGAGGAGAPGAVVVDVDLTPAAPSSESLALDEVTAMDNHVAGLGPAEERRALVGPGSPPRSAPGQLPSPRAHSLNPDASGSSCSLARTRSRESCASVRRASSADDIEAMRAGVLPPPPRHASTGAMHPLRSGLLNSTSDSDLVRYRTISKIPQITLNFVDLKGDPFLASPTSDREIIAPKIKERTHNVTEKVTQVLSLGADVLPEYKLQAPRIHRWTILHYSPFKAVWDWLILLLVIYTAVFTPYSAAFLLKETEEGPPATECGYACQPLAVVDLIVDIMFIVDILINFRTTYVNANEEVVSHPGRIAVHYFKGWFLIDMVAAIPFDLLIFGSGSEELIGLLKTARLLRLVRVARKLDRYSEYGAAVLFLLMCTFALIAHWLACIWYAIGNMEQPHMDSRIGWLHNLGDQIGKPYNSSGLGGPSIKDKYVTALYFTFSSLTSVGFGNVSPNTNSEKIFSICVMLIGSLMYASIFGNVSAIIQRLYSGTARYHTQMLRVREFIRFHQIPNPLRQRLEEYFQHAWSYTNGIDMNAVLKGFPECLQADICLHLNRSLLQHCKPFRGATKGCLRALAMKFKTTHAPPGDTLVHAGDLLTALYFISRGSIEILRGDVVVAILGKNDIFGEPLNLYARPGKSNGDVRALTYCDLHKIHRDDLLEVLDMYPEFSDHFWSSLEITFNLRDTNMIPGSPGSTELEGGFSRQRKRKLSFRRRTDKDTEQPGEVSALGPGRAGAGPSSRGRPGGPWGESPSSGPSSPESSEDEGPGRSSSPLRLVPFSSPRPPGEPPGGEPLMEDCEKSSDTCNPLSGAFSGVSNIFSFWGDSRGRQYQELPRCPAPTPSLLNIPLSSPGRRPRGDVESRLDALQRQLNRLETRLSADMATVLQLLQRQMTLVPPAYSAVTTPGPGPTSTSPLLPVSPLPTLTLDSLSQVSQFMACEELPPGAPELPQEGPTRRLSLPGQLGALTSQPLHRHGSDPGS

SMILES | hERG current change (%, negative = inhibition) at 10uM [%]
COC(=O)C(Cc1ccc(O)cc1)NC(=O)CCOc1ccc(OC)cc1 (centres unmarked) | -3.87
O=C(CSc1cccc[n+]1[O-])c1cccs1 | 16.4
Cc1ccc(Cl)c(OCC(=O)NC2CCN(Cc3ccccc3)CC2)c1 | -115
Cn1ccnc1C(O)(c1ccccc1)c1nccn1C | 26.3
Cc1ccc(-n2c(O)c(C=NCc3ccccn3)c3ccccc3c2=O)cc1C | -11.5
CC(C)(C)OC(=O)NCCCC[C@H](NC(=O)c1nc[nH]c1C(=O)NCc1ccc(CNC(=O)OC(C)(C)C)cc1)C(=O)OC(C)(C)C | -6.28
Cc1cc(F)c(F)c(C(=O)N2CCCCC2C)c1Cl (centres unmarked) | 1.73
Cc1cccc2c1nc(-c1ccccc1)n1nnnc21 | 1.91
COc1ccc(S(=O)(=O)N(C)c2ccc(C(=O)NCc3ccccn3)cc2)cc1OC | 4.53
COc1ccc(OC)c(/C=N/NC(=O)c2cc[n+](Cc3ccccc3)cc2)c1.[Cl-] | 4.36
Cc1cccc(-n2c(SCC(=O)N3CCN(c4ccccn4)CC3)nnc2N2CCOCC2)c1 | -12.9
Cc1nc2ccccc2c(=O)n1-c1cc(F)ccc1F | 8.31
CCOC(=O)COc1nc(-c2ccco2)cc(-c2ccco2)c1C#N | 7.92
Cc1nnc(-c2cccc(Br)c2)c2cn(-c3ccc(Br)cc3)nc12 | -25
CC1CCN(S(=O)(=O)c2cccc(S(=O)(=O)N3CCOCC3)c2)CC1 | -30.2
Cc1ccc(-c2nn(-c3ccccc3)cc2/C=N/NC(=O)c2ccc(Br)o2)cc1 | 5.59
Cc1ccc(N2C(=O)c3ccccc3NC2C(C)Cc2ccc3c(c2)OCO3)cc1 (centres unmarked) | 7.33
CCCCn1c(NCc2ccc(N(C)C)cc2)nc2ccccc21 | -43.7
Cc1nonc1OCCNCCNc1ccc([N+](=O)[O-])c2cccnc12 | -52.2

SMILES | hERG current change (%, negative = inhibition) at 10uM [%]
C[C@]1(CC/C(=C/CO)CO)[C@H](CO)CC[C@@]23COC(=O)C2=CCC[C@@H]31 | 16.4
CCNC(=O)COC(=O)c1ccc(-c2nc3ccccc3s2)s1 | 4.16
O=C(OCCCOC(=O)c1ccc(O)cc1)c1ccc(O)cc1 | -17.3
Cc1ccc(S(=O)(=O)N2CCCCC2)cc1NC(=O)CSc1ncccn1 | -15.8
CN(C)C(=O)C[n+]1ccc(C(N)=O)cc1.[Cl-] | 6.48
CN(C)c1oc(-c2ccc(Cl)cc2)nc1S(=O)(=O)c1ccccc1 | 3.14
CCCn1c(N)c(N(CCOC)C(=O)C2CCCC2)c(=O)[nH]c1=O | -0.462
CNC(=S)N1CCC(Cc2ccccc2)CC1 | -0.0992
CCSc1oc(-c2cccs2)nc1S(=O)(=O)c1ccccc1 | 11.1
COc1ccccc1N1CCN(CCCNc2cc(=O)n(C)c(=O)n2C)CC1.Cl | -12.7
O=C(N/N=C1\C2CN3CCN(C2)CC1(c1ccccc1)C3)c1ccc(F)cc1 | 2.31
CCCC(CCC(=O)Nc1ccc(S(N)(=O)=O)cc1)C(=O)O (centres unmarked) | 10.8
Cc1ccccc1OCC(=O)OCC(=O)NCc1cccs1 | 1.72
Cc1ccc(-c2cc(C(F)(F)F)n3ncc(C(=O)N4CCN(C)CC4)c3n2)cc1 | -7.6
CC1c2ccccc2SC(CCCN(C)C)c2ccccc21.O=C(O)/C=C\C(=O)O (centres unmarked) | -19.2
COc1ccc(S(=O)(=O)Nc2cccc(/C=C/C(=O)O)c2)cc1 | 9.65
COc1ccc(CN(C)C(=O)c2cccc(NS(=O)(=O)c3ccccc3)c2)c(OC)c1 | -8.5
CS(=O)(=O)Nc1cccc(C2=NN(C(=O)c3ccco3)C(c3cccs3)C2)c1 (centres unmarked) | -59
CC1=C([N+](=O)[O-])C(c2ccc(Cl)cc2)NC(=O)N1C (centres unmarked) | -11.5

SMILES | hERG current change (%, negative = inhibition) at 10uM [%]
Cc1noc(C)c1COC(=O)c1ccc(-c2nc3ccccc3s2)s1 | -2.33
Cc1ccc(C2(C)NC(=O)N(CC(=O)N(C)CC(=O)Nc3cccc4ccccc34)C2=O)cc1 (centres unmarked) | 2.52
Cc1cccc(C)c1NC(=S)N(Cc1ccccc1)Cc1cccnc1 | 1.4
C[C@@H](NC(=O)Cn1ccc(N)nc1=O)c1cccc2ccccc12 | 18
CCOC(=O)Cc1csc(NC(=O)Nc2cccs2)n1 | 9.01
COc1cc(C2NCCC(=O)C2(C)C)cc(OC)c1OC.Cl (centres unmarked) | -0.479
NC(=O)Nc1ccc(C(=O)OCC(=O)Nc2ccc(Cl)cn2)cc1 | 15.2
O=C(CSc1nnc2c(Cl)cc(Cl)cn12)N1CCN(c2ccc(F)cc2)CC1 | -51.5
Cn1c(-c2ccccc2Br)n[nH]c1=S | 18.8
COc1ccc(CNC(=O)Nc2cccc(C(F)(F)F)c2)cc1OC | 14.1
O=C(Nc1ncc2c(n1)CC(c1cccc(Cl)c1)CC2=O)c1ccco1 (centres unmarked) | -39
COc1cc(NS(=O)(=O)c2ccc(N/C=C(\C=O)c3nc4cc(Cl)ccc4o3)cc2)nc(OC)n1 | -2.34
N#CC1=C(N)Oc2c(c(=O)oc3ccccc23)C1c1ccc([N+](=O)[O-])o1 (centres unmarked) | 45.8
CCOC(=O)c1ccc(CN2Cc3ccccc3C2=O)cc1 | 2.17
CCCc1nn(C)c(C(=O)Nc2ccc(C)c(C)c2)c1Cl | -10
CCCCn1c(N)c(N(CCC(C)C)C(=O)C2CSC3(C)CCC(=O)N23)c(=O)[nH]c1=O (centres unmarked) | -2.67
CC(C)Cn1c(CCC(=O)O)ccc1-c1cccs1 | 4.38
Cc1ccc(OCCn2c(=O)sc3ccccc32)cc1 | 4.98
